This is an account of results in PubChem BioAssay AID1963986 (Molecular Pharmacology Branch, DTP, NCI, 2024).

Not every entry of the source has a single result; some have several. They are shown here; other results are not. The source may hold further records. The records of an entry are repeats in other runs, samples, wells, individuals or studies.

The test system of this test is 171881-019-R-J1-PDC tumor spheroid viability. In words: Anticancer human tumor 171881-019-R-J1-PDC patient-derived invasive breast carcinoma cell line growth inhibition [PI3K]. The following applies: spheroids with HUVEC and MSC; for viability, T/C: stronger effect = lower value; for IC50: compound alone. The source says:
Combinatorial screen of targeted agents with the PI3K inhibitors inavolisib, alpelisib, duvelisib, and copanlisib in multi-cell type tumor spheroids
A high-throughput screen of multi-cell type tumor spheroids was designed to identify active combinations of targeted small molecules and PI3K pathway inhibitors. Complex spheroids include a stromal component modeled by human endothelial cells (HUVEC) and fibroblasts modeled by human mesenchymal stem cells (MSCs). The concentration ranges selected for each drug and investigational agent were based upon clinically achievable concentrations if the clinical Cmax of the agent was known.
Compounds. The drugs and investigational agents: inavolisib (NSC800729), alpelisib (NSC765974), duvelisib (NSC772469), copanlisib (NSC816437), ipatasertib (NSC767898), afuresertib (NSC778305), talazoparib (NSC767125), sapanisertib (NSC764658), selumetinib (NSC741078), tovorafenib (DAY101, NSC766906), vemurafenib (NSC761431), ravoxertinib (NSC781343), sotorasib (NSC818433), MRTX1133 (NSC 836407), abemaciclib (NSC 768073), palbociclib (NSC758247), venetoclax (NSC 766270), SY5609 (NSC837396), enzalutamide (NSC755605), and darolutamide (NSC825331), were obtained from the National Cancer Institute (NCI) Developmental Therapeutics Program Chemical Repository. The FDA-approved anticancer drug set is available from the NCI Developmental Therapeutics Program. […] The stock solutions were prepared in dimethyl sulfoxide (DMSO, Sigma-Aldrich, St. Louis, MO, cat. D2650) at 800-fold the tested concentration and stored at -70 degrees C prior to their use. All drugs and investigational agents were tested over a range starting from a high concentration at or near the clinical Cmax and decreasing in half-log increments. If the clinical Cmax for an agent had not been determined, the highest concentration tested was 10 microM.
Cell Culture. All cells were maintained in an incubator at 37 degrees C and 5% CO2 with 95% humidity. The PDC lines were cultured according to standard operating procedures established by the NCI PDMR (https://pdmr.cancer.gov/sops/default.htm). All PDCs were thawed and cultured in Matrigel-coated flasks prepared with a working solution of 1X Ham's F-12 nutrient mix, without supplementation (Invitrogen, Waltham, MA, cat. 11765054), 100 U/mL penicillin-streptomycin (Invitrogen, cat. 15140122), and 2.5% Matrigel (Corning Inc., Corning, NY, cat. 354248) for the first three passages. The 354836-022-R-J1-PDC, 475296-252-R-J1-PDC, and 997726-040-R-J2-PDC lines were cultured in 6A media, which includes advanced DMEM/F-12 (Thermo Fisher Scientific, cat. 12634028), 10 mM HEPES (Thermo Fisher Scientific, cat. 15630080), 1X GlutaMAX supplement (Thermo Fisher Scientific, cat. 35050061), 0.1 mg/mL primocin (InvivoGen, San Diego, CA, cat. ant-pm-2), 10% defined fetal bovine serum, heat inactivated (HyClone Laboratories Inc., Logan, UT, cat. SH30070.03HI), 50% L-WRN conditioned media (ATCC, cat. CRL-3276), 1.25 mM N-Acetyl-L-cysteine (Sigma-Aldrich, cat. A9165), 10 mM nicotinamide (Sigma-Aldrich, cat. N0636), 1X B-27 supplement (Thermo Fisher Scientific, cat. 17504044), 1X N-2 supplement (Thermo Fisher Scientific, cat. 17502048), and 10 microM Y-27632 dihydrochloride (Tocris Bioscience, Bristol, United Kingdom, cat. 1254). The 624824-186-R-J2-PDC line was cultured in 6C/Colon 1B media, which includes all 6A media components plus 50 ng/mL human EGF recombinant protein (Thermo Fisher Scientific, cat. PHG0311). […]
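Further: spheroids exposed to compound for 7 days before viability read.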
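Wherever viability, T/C is given: 100% = DMSO vehicle-treated spheroids.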

As for `CC(C)n1nc(-c2ccc3oc(N)nc3c2)c2c(N)ncnc21`, the viability, T/C (compound alone 0.000316 µM) is on record as 69.5, 80.6, 103, 89.1%. As to `CC1(C)CCC(CN2CCN(c3ccc(C(=O)NS(=O)(=O)c4ccc(NCC5CCOCC5)c([N+](=O)[O-])c4)c(Oc4cnc5[nH]ccc5c4)c3)CC2)=C(c2ccc(Cl)cc2)C1`, the IC50 is reported as 4.37 µM, 4.17 µM, 3.89 µM, > 10 µM. Besides, the viability, T/C (compound alone 0.316 µM) is 88.3, 96.6, 70.6, 76%. The viability, T/C (compound alone 10 µM) is 16.9, 15.8, 13.7, 70.3%.

On to `CNC(=O)c1ccc(N2C(=S)N(c3ccc(C#N)c(C(F)(F)F)c3)C(=O)C2(C)C)cc1F`, for which the viability, T/C (compound alone 0.316 µM) is reported as 99.9, 72.2, 79, 80.5%. For the compound `C[C@@H](NC(=O)c1ncnc(N)c1Cl)c1ncc(C(=O)Nc2cc(C(F)(F)F)c(Cl)cn2)s1`, the IC50 is recorded as 8.14 µM, 9.67 µM, > 10 µM, 9.83 µM.
